Reference: the supplement of paper PMC8728848
This is one part of the list.

Experiments:
Assay in all cases: glycan array binding signal (z-score within array); higher = stronger binding
Details in all cases: glycan notation: IUPAC condensed, linker removed
[1] = target: Gal(b1-4)GlcNAc(b1-3)Gal(b1-4)GlcNAc(b1-3)Gal(b1-4)GlcNAc(b1-3)Gal(b1-4)GlcNAc(b1-2)Man(a1-3)[Gal(b1-4)GlcNAc(b1-3)Gal(b1-4)GlcNAc(b1-3)Gal(b1-4)GlcNAc(b1-3)Gal(b1-4)GlcNAc(b1-2)Man(a1-6)]Man(b1-4)GlcNAc(b1-4)[Fuc(a1-6)]GlcNAc
Method in brief: (§1)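 Negative Z-scores can be read as non-binding. The Z-score is calculated within each array and then averaged across arrays of one protein sequence at different concentrations or buffers and across linkers. Arrays, 3228 in all, were curated from the Consortium for Functional Glycomics database and kept only where the protein sequence was available.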

[2] = target: Gal(b1-4)GlcNAc(b1-3)Gal(b1-4)GlcNAc(b1-3)Gal(b1-4)GlcNAc(b1-3)Gal(b1-4)GlcNAc(b1-2)[Gal(b1-4)GlcNAc(b1-3)Gal(b1-4)GlcNAc(b1-3)Gal(b1-4)GlcNAc(b1-3)Gal(b1-4)GlcNAc(b1-6)]Man(a1-6)[Gal(b1-4)GlcNAc(b1-3)Gal(b1-4)GlcNAc(b1-3)Gal(b1-4)GlcNAc(b1-3)Gal(b1-4)GlcNAc(b1-2)Man(a1-3)]Man(b1-4)GlcNAc(b1-4)[Fuc(a1-6)]GlcNAc
Method in brief: as §1

[3] = target: Gal(b1-4)GlcNAc(b1-3)Gal(b1-4)GlcNAc(b1-3)Gal(b1-4)GlcNAc(b1-3)Gal(b1-4)GlcNAc(b1-3)Gal(b1-4)GlcNAc(b1-2)Man(a1-3)[Gal(b1-4)GlcNAc(b1-3)Gal(b1-4)GlcNAc(b1-3)Gal(b1-4)GlcNAc(b1-3)Gal(b1-4)GlcNAc(b1-3)Gal(b1-4)GlcNAc(b1-2)Man(a1-6)]Man(b1-4)GlcNAc(b1-4)GlcNAc
Method in brief: as §1

[4] = target: Gal(b1-4)GlcNAc(b1-3)Gal(b1-4)GlcNAc(b1-3)Gal(b1-4)GlcNAc(b1-3)Gal(b1-4)GlcNAc(b1-3)Gal(b1-4)GlcNAc(b1-2)Man(a1-3)[Gal(b1-4)GlcNAc(b1-3)Gal(b1-4)GlcNAc(b1-3)Gal(b1-4)GlcNAc(b1-3)Gal(b1-4)GlcNAc(b1-3)Gal(b1-4)GlcNAc(b1-2)Man(a1-6)]Man(b1-4)GlcNAc(b1-4)[Fuc(a1-6)]GlcNAc
Method in brief: as §1

[5] = target: Gal(b1-4)GlcNAc(b1-3)Gal(b1-4)GlcNAc(b1-3)Gal(b1-4)GlcNAc(b1-3)Gal(b1-4)GlcNAc(b1-3)Gal(b1-4)GlcNAc(b1-2)[Gal(b1-4)GlcNAc(b1-3)Gal(b1-4)GlcNAc(b1-3)Gal(b1-4)GlcNAc(b1-3)Gal(b1-4)GlcNAc(b1-3)Gal(b1-4)GlcNAc(b1-6)]Man(a1-6)[Gal(b1-4)GlcNAc(b1-3)Gal(b1-4)GlcNAc(b1-3)Gal(b1-4)GlcNAc(b1-3)Gal(b1-4)GlcNAc(b1-3)Gal(b1-4)GlcNAc(b1-2)Man(a1-3)]Man(b1-4)GlcNAc(b1-4)[Fuc(a1-6)]GlcNAc
Method in brief: as §1

[6] = target: Gal(b1-4)GlcNAc(b1-3)Gal(b1-4)GlcNAc(b1-3)Gal(b1-4)GlcNAc(b1-3)Gal(b1-4)GlcNAc(b1-3)Gal(b1-4)GlcNAc(b1-3)Gal(b1-4)GlcNAc(b1-2)Man(a1-3)[Gal(b1-4)GlcNAc(b1-3)Gal(b1-4)GlcNAc(b1-3)Gal(b1-4)GlcNAc(b1-3)Gal(b1-4)GlcNAc(b1-3)Gal(b1-4)GlcNAc(b1-3)Gal(b1-4)GlcNAc(b1-2)Man(a1-6)]Man(b1-4)GlcNAc(b1-4)GlcNAc
Method in brief: as §1

[7] = target: Gal(b1-4)GlcNAc(b1-3)Gal(b1-4)GlcNAc(b1-3)GalNAc
Method in brief: as §1

[8] = target: Gal(b1-4)GlcNAc(b1-3)Gal(b1-4)GlcNAc(b1-3)[Gal(b1-4)GlcNAc(b1-3)Gal(b1-4)GlcNAc(b1-6)]GalNAc
Method in brief: as §1

[9] = target: Gal(b1-4)GlcNAc(b1-3)Gal(b1-4)GlcNAc(b1-6)[Gal(b1-3)]GalNAc
Method in brief: as §1

[10] = target: Gal(b1-4)GlcNAc(b1-3)Gal(b1-4)[Fuc(a1-3)]GlcNAc(b1-3)Gal(b1-4)[Fuc(a1-3)]GlcNAc
Method in brief: as §1

[11] = target: Gal(b1-4)GlcNAc(b1-3)GalNAc
Method in brief: as §1

[12] = target: Gal(b1-4)GlcNAc(b1-3)[Fuc(a1-3)GlcNAc(b1-6)]Gal(b1-4)Glc
Method in brief: as §1

[13] = target: Gal(b1-4)GlcNAc(b1-3)[Gal(b1-4)GlcNAc(b1-6)]Gal(b1-4)GlcNAc
Method in brief: as §1

[14] = target: Gal(b1-4)GlcNAc(b1-3)[GlcNAc(b1-6)]Gal(b1-4)GlcNAc
Method in brief: as §1

[15] = target: Gal(b1-4)GlcNAc(b1-6)Gal(b1-4)GlcNAc
Method in brief: as §1

[16] = target: Gal(b1-4)GlcNAc(b1-6)GalNAc
Method in brief: as §1

[17] = target: Gal(b1-4)GlcNAc(b1-6)[Gal(b1-3)]GalNAc
Method in brief: as §1

[18] = target: Gal(b1-4)GlcNAc(b1-6)[Gal(b1-4)GlcNAc(b1-3)]GalNAc
Method in brief: as §1

Gal(b1-4)GlcNAc6P = target: Gal(b1-4)GlcNAc6P
Method in brief: as §1

Gal(b1-6)Gal = target: Gal(b1-6)Gal
Method in brief: as §1

Gal3S(b1-3)GalNAc = target: Gal3S(b1-3)GalNAc
Method in brief: as §1

Gal3S(b1-3)GlcNAc = target: Gal3S(b1-3)GlcNAc
Method in brief: as §1

[19] = target: Gal3S(b1-3)[Fuc(a1-4)]GlcNAc
Method in brief: as §1

Gal3S(b1-4)Glc = target: Gal3S(b1-4)Glc
Method in brief: as §1

Gal3S(b1-4)Glc6S = target: Gal3S(b1-4)Glc6S
Method in brief: as §1

Gal3S(b1-4)GlcNAc = target: Gal3S(b1-4)GlcNAc
Method in brief: as §1

[20] = target: Gal3S(b1-4)[Fuc(a1-3)]Glc6S
Method in brief: as §1

[21] = target: Gal3S(b1-4)[Fuc(a1-3)]GlcNAc
Method in brief: as §1

[22] = target: Gal3S(b1-4)[Fuc(a1-3)]GlcNAc6S
Method in brief: as §1

Gal3S4S(b1-4)GlcNAc = target: Gal3S4S(b1-4)GlcNAc
Method in brief: as §1

Gal3S6S(b1-4)GlcNAc = target: Gal3S6S(b1-4)GlcNAc
Method in brief: as §1

Gal3S6S(b1-4)GlcNAc6S = target: Gal3S6S(b1-4)GlcNAc6S
Method in brief: as §1

Gal4S(b1-4)GlcNAc = target: Gal4S(b1-4)GlcNAc
Method in brief: as §1

Gal4S6S(b1-4)GlcNAc = target: Gal4S6S(b1-4)GlcNAc
Method in brief: as §1

Gal6P(b1-4)GlcNAc = target: Gal6P(b1-4)GlcNAc
Method in brief: as §1

Gal6S(b1-3)GlcNAc = target: Gal6S(b1-3)GlcNAc
Method in brief: as §1

Gal6S(b1-3)GlcNAc6S = target: Gal6S(b1-3)GlcNAc6S
Method in brief: as §1

Gal6S(b1-4)Glc = target: Gal6S(b1-4)Glc
Method in brief: as §1

B1: PX9937D-bvu-500-26-500 (Bacteroides vulgatus) (protein)
chain: DPVSDITDLNYWKTPEQFDSFVFGLHSRFRSHSWNMFLLGEARSDVFGGIPFGGEATQGMERFPYNTLNAENPGISGFGDLYQNINQMNLFISRTLHTDVLTESARNYYLGQVYGLRAYYMYQLYRSWGDVVFTEEPSLGFEVGKLAKAATPAAEIFEQVKKDIESSLSYFGSDYTIKEKKSLWSKAATLMLKADVYLWSAHRDGGEGDARTAKNALVDIQNNISRSNLDLMDTYQGVFAYDNKGNKEIIFTIHNELFEYNLWNGNNDLFPQADYLGKFYNADGTLINTSVENNFGIMRLMVKLENFKKFLPGDTRRDVTLKDVYNKVENGKLELVGVYPHKYWGVMNGSTRVRCDDYPIYRYSDLLLMLAEAKVLLGEDPATEINRVRRRAFGDAYDASTVGFPNQEVDKRPADAVLQERLFEFMLEGKRWYDLRRFGDSYVLDYTPAEPARLLWPINQGALTNNPLLKQTVGY
In the case of B1, the “glycan array binding signal (z-score)” value [1] is reported as 0.083, the “glycan array binding signal (z-score)” value [2] is reported as 1.17 and the “glycan array binding signal (z-score)” value [3] is reported as -0.026. The “glycan array binding signal (z-score)” value [4] was 0.497, the “glycan array binding signal (z-score)” value [5] was 1.93 and the “glycan array binding signal (z-score)” value [6] was 2.58. The “glycan array binding signal (z-score)” value [7] was -0.444, the “glycan array binding signal (z-score)” value [8] was 0.311 and the “glycan array binding signal (z-score)” value [9] was -0.492. For the same binder, the “glycan array binding signal (z-score)” value [10] was -0.506, the “glycan array binding signal (z-score)” value [11] was -0.157 and the “glycan array binding signal (z-score)” value [12] was 0.466. For the same binder, the “glycan array binding signal (z-score)” value [13] was -0.448, the “glycan array binding signal (z-score)” value [14] was -0.268 and the “glycan array binding signal (z-score)” value [15] was -0.271. For the same binder, the “glycan array binding signal (z-score)” value [16] was -0.014, the “glycan array binding signal (z-score)” value [17] was 0.19 and the “glycan array binding signal (z-score)” value [18] was -0.31. The “glycan array binding signal (z-score)” value (Gal(b1-4)GlcNAc6P) was 0.132, the “glycan array binding signal (z-score)” value (Gal(b1-6)Gal) was -0.175 and the “glycan array binding signal (z-score)” value (Gal3S(b1-3)GalNAc) was 0.001. For the same binder, the “glycan array binding signal (z-score)” value (Gal3S(b1-3)GlcNAc) was -0.008, the “glycan array binding signal (z-score)” value [19] was -0.09 and the “glycan array binding signal (z-score)” value (Gal3S(b1-4)Glc) was 0.35. The “glycan array binding signal (z-score)” value (Gal3S(b1-4)Glc6S) was -0.258, the “glycan array binding signal (z-score)” value (Gal3S(b1-4)GlcNAc) was -0.143 and the “glycan array binding signal (z-score)” value [20] was 0.78. For the same binder, the “glycan array binding signal (z-score)” value [21] was 0.119, the “glycan array binding signal (z-score)” value [22] was -0.235 and the “glycan array binding signal (z-score)” value (Gal3S4S(b1-4)GlcNAc) was -0.325. The “glycan array binding signal (z-score)” value (Gal3S6S(b1-4)GlcNAc) was -0.426, the “glycan array binding signal (z-score)” value (Gal3S6S(b1-4)GlcNAc6S) was 0.182 and the “glycan array binding signal (z-score)” value (Gal4S(b1-4)GlcNAc) was -0.435. The “glycan array binding signal (z-score)” value (Gal4S6S(b1-4)GlcNAc) was -0.402, the “glycan array binding signal (z-score)” value (Gal6P(b1-4)GlcNAc) was -0.266 and the “glycan array binding signal (z-score)” value (Gal6S(b1-3)GlcNAc) was 1.2. For the same binder, the “glycan array binding signal (z-score)” value (Gal6S(b1-3)GlcNAc6S) was 0.946 and the “glycan array binding signal (z-score)” value (Gal6S(b1-4)Glc) was -0.225.
